Laboratory results taken from patent US5491135A (priority 1993, dated 1996).

Tested on: DHPG resistant HCMV
Assay: microbe, parasite or virus in culture
Method: These experiments were performed to confirm the in vitro efficacy of the PALA at a concentration of 10 μg/ml during HCMV infection. In vitro infection on Hs68 cell monolayers and efficacy evaluations were performed for the following HCMV virus isolates: [1] AD169, a standard laboratory cytomegalovirus strain; 2] a DHPG resistant HCMV isolate (Thymidine kinase resistant DHPG; […] . This study also evaluated the reduction in HCMV titers during active suppression with the experimental drug and with DHPG.
10^4 PFU/ml HCMV of either: [1] strain AD 169; [2] DHPG resistant HCMV; or [3] the recently isolated clinical HCMV strain characterized as described above was inoculated onto confluent Hs68 cell monolayers (35 mm culture dishes) and adsorbed to the monolayers for 1 hour at 37° C. The inoculum was aspirated and medium containing the experimental drug or DHPG, or no drug in the medium was added to the HCMV-inoculated monolayer. Medium containing the appropriate drug additives was changed daily. At 24 hour intervals, from day 1 through day 7 PI, the HCMV-inoculated drug-treated monolayers were handled as follows: The supernatant containing cell-free virus was removed from the cells and the titer of HCMV cell-free virus in the supernatant was determined by standard plaque assay. The cell monolayer was washed with HBSS to remove residual drug, and the cells harvested by scraping. The cells were sonicated and centrifuged to pellet cell debris. The titer of the cell-free HCMV released from the infected cell monolayer was determined. The efficacy of the drug was represented as reduction in HCMV PFU/ml compared to non-drug-treated HCMV PFU/ml and to DHPG HCMV inhibition.

Compound	reduction of HCMV titer	Cell associated HCMV titer (day 0 PI)	Cell free (supernatant) HCMV titer (day 0 PI)	Cell associated HCMV titer (day 1 PI)	Cell free (supernatant) HCMV titer (day 1 PI)	Cell associated HCMV titer (day 2 PI)	Cell free (supernatant) HCMV titer (day 2 PI)	Cell associated HCMV titer (day 3 PI)	Cell free (supernatant) HCMV titer (day 3 PI)	Cell associated HCMV titer (day 4 PI)	Cell free (supernatant) HCMV titer (day 4 PI)	Cell associated HCMV titer (day 5 PI)	Cell free (supernatant) HCMV titer (day 5 PI)	Cell associated HCMV titer (day 6 PI)	Cell associated HCMV titer (day 7 PI)	log reduction at 10 µg/mL (Human betaherpesvirus 5, Hs68, read-out: viral yield reduction)
Nc1nc(O)c2ncn(COC(CO)CO)c2n1 [DHPG, reference compound]	not effective in reducing the titer of HCMV	10^2 PFU/ml	10^5 PFU/ml	10^3 PFU/ml	10^3 PFU/ml	10^3 PFU/ml	10^4 PFU/ml	10^5 PFU/ml	10^5 PFU/ml	10^5 PFU/ml	10^5 PFU/ml	10^4 PFU/ml	10^4 PFU/ml	10^4 PFU/ml	10^2 PFU/ml	
O=C(O)C[C@H](NC(=O)CP(=O)(O)O)C(=O)O [PALA]		10^2 PFU/ml	10^5 PFU/ml	10^3 PFU/ml	10^1 PFU/ml	10^1 PFU/ml	10^1 PFU/ml	10^1 PFU/ml	10^2 PFU/ml	10^1 PFU/ml	10^2 PFU/ml	0 PFU/ml	10^1 PFU/ml	10^1 PFU/ml	10^1 PFU/ml	2 to 3
